The supplement of paper PMC10126150
Sequences with one replicate were seen in a single cluster, so their values are uncertain.

system: ATP; assay: switch fluorescence ratio, 500 uM ATP over buffer (Cy3 cluster intensity, sum of 5 cycles each) (fold (ratio)); higher = stronger signal-on switching upon ATP binding; sequences stand for … in TCGTCGGCAGCGTCAGATGTGTATAAGAGACAGTTTTTTTTTTTTTTTTTTTTTTTTT…TC; conditions: aptamer strand: ATP DNA aptamer (quencher-CACCTGGGGGAGTATTGCGGAGGAAGG + anchor), 100 nM annealed; ATP concentration: 500 uM; one replicate
Summary of the method: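 After annealing to 100 nM quencher-labelled ATP aptamer, Cy3-labelled switching-strand clusters on a modified Illumina MiSeq flow-cell were imaged in selection buffer. A second image followed after 15 min with 500 uM ATP at 22 °C, and five such buffer/ATP cycles were done, each separated by NaOH stripping and re-annealing. The fluorescence ratio, averaged per switch-domain sequence, is summed target-cycle over summed buffer-cycle Cy3 intensity per cluster, with clusters outside 100-1000 RFU excluded.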
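Note: ATP exposure 15 min at 22 °C before imaging.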

Sequence | switch fluorescence ratio
GGGTCGAACC | 1.02
ACATCATCTT | 0.985
GCTTTCAC | 1.02
GAGTCGAAGA | 0.989
AGTGCCGAGT | 0.93
GTGCGTCCAA | 0.967
CCTCACCAGG | 3.1
AGCGGTGAAG | 1.02
GAACTGGGCA | 0.989
TCGTGACGA | 1.05
AGCAGGTTTC | 0.972
CCTTTTGTCA | 1.02
CCCCGAGGAA | 1.06
ATTGCCGATG | 0.965
TCAATTCAGA | 1.05
CTGCGGCTAA | 1.08
TCTATGTCAC | 1.05
TTTAGCCGTG | 1.01
CGACGATG | 0.985
CTGAGACGTT | 1
CTTTCCTTGA | 0.973
CCCGGGTAGC | 1.07
AACTATAGCA | 1.06
GACACGCCTT | 1.04
CTTAGTCGAG | 0.982
AGATCCTGCC | 1.69

Sequence | switch fluorescence ratio
ACGGGCCCGC | 1.03
GCCAGTCA | 0.986
AACGGGGGAT | 1.01
AATTAGCCGT | 0.917
AAGACAGGGC | 0.992
ATCGATGATA | 1.02
ACTGTCTCTA | 1.07
ACTTTGAGGG | 1.04
ATACGGCATC | 1.07
CAAGCGCGAC | 1.15
ACAGTTGCCT | 0.997
GACAGGAGTT | 1.02
GGCGGCACGG | 0.997
GCCGTTGAGG | 1.01
GCCGAATGAC | 1.25
ACGATGTAAT | 1.16
CAGGTGGACA | 0.985
ACAACTATC | 1.12
TGGCGTTAGA | 1.04
AGATTGCTCA | 0.978
AGGAGAGCAG | 1.16
TTATTATAC | 1.05
CGTACATACT | 1.8
GCCTACTCAG | 1.05
ACAGATAAAA | 0.992
CCAAGAGACG | 0.977

Sequence | switch fluorescence ratio
ATTCAGATTG | 1.01
AGGGAGTGTA | 1.03
TTCTTGAGGG | 0.956
TCGAGCCCTA | 1.04
GCTTGGTGCG | 0.978
TCAGGATGCA | 1.06
TGGGCACCAC | 0.979
TCTCTGAGGT | 1.05
CAGGTGAGGT | 1.44
ACATCGTCTC | 0.982
AACGATTTGT | 1.05
ATATGTGTGC | 0.984
GAGTGATTTC | 1.03
AGCTGAGA | 0.959
AGGGTGGT | 0.981
TTCCTTAAGC | 1.01
GTTGGATAGT | 0.998
TAATTATTGG | 0.958
TGAATACACG | 1.01
CGGGGTTTCC | 0.957
CGGAACCAG | 1.05
CGATAAGTC | 1.02
CCTCGGGGGA | 3.02
TACACCGAGG | 1.01
CTGACTATTG | 0.996
ACACGCCTTT | 1.01

Sequence | switch fluorescence ratio
AAGTCGTTTT | 1
AAGTACTTCT | 1.22
CGCGTCGTCG | 1.01
TCTCGTATCG | 0.97
TGCCTTTCTT | 1.1
GAGTCCCTTT | 1.01
TATTGCCTTG | 0.962
AGCAAATTGC | 0.969
CTCGATTACC | 1.01
AATGTCAGGG | 1
TGATTCATGC | 1.01
GGCGTGGGTA | 0.998
AACCCAGATT | 1
CTACGTGTCG | 1.04
GGTTATAAGA | 0.972
GCACAGCTTT | 1.02
GCCCGCATGA | 2.95
AGCTGTTAGG | 1.01
CGAGAAAAGC | 0.99
CAGTATGTTG | 0.951
ATGTTCGGTG | 0.968
ATAACTGGAT | 1.01
AACCGCGTGC | 2.24
CCCAAATCGC | 3.94
CTTGAGTGAC | 0.986
TGCCAAGGAG | 0.973

Sequence | switch fluorescence ratio
TTTGTCGAGA | 0.961
ATCAGGTCCT | 0.998
TCACCCAAAA | 1.06
CCAAAGTTAT | 1.09
GGCTGTTTTG | 0.989
ATTGCTACAG | 1.01
GTGAACGTAC | 1.7
ACCGAAGACA | 1.09
AGGCATGTCG | 1.1
AGCGGTGACC | 1.03
CAGTCAAATA | 0.991
ATCACGTATT | 1.21
GGCTGATCAG | 1.03
TTTCCTGCAT | 0.978
ACCCGTTTTT | 1.01
CACGGATTTG | 1.02
TCGTCAAAGG | 1.01
ACGATGGCAA | 3.25
CATCGACACA | 1.02
ATACTGAAGA | 1.04
AGGAGTGCGT | 1.01
CTCGGCCAAC | 4.56
CAAAGACGTT | 0.993
GGCTCGAAT | 0.978
ACAGGTTAGC | 1.01
ATTACGTC | 0.947

Sequence | switch fluorescence ratio
CGGAAATT | 1
GGCGTTATCG | 1.02
AAGGTTCCTA | 1.02
TCCGTTGAGC | 1.11
TGATTTAAGA | 1
AGGCGGATCC | 1
CTTGCGGTTT | 1.03
CGCCACTGAC | 1.67
TGTGAAGT | 1.01
GGTTTAAAA | 0.955
GGTACCGGCT | 0.929
GTTAGAACAG | 0.98
TACCTAACGC | 1.36
TTTGTCACTC | 1.05
ACTCTTGATG | 0.978
TGAAGTGATC | 1.08
AATTTTCCTA | 1.01
GGGTGATAGC | 0.949
AGTGTGTTGT | 1.03
TGTGCGATTC | 1.32
CAAGAGAGAA | 0.936
GTCACAGATA | 0.968
ATGCATCCGG | 0.974
ATAAGGTTTG | 0.988
TTCGTCGTTG | 0.944
TATAGCATAT | 1.06

Sequence | switch fluorescence ratio
ATCATATTGA | 1
AAGCCAGCGC | 0.927
CCGGTAGCG | 1.48
AGAATAAAAT | 0.997
TGCAACGCAG | 1.03
CAAATAAAGT | 1
TTGCCTTAAG | 0.994
CGGTGCCCTG | 1
GCTGATGTCA | 1.06
AAACGGCCAC | 1.23
ATTGGAGGAA | 1.05
GCTCCACTAA | 1.59
GGAGGATGTG | 1.02
CAATCCGGGG | 0.963
CAGTGTAAAG | 1.02
AGCCGTCTCA | 0.966
GATGCGGAC | 1.78
GTGATAGTAG | 1
CGATGTGTCA | 0.944
AAGCGAAGGT | 1.03
TGTAATTAAG | 0.995
ACGTGTTTAA | 1.03
CATAGAAATG | 0.992
CTTTCCTCGG | 1.08
CATGGAGCTA | 1.12
GCAAAAGTGT | 0.939

Sequence | switch fluorescence ratio
AACAAATACG | 1.55
TGAGTAAGCT | 1.03
GCATAACAA | 1
CGCCATTATA | 0.981
TGGACTATT | 1
ACGGGTTCAG | 1.03
TTTATACGAA | 0.994
TCTGAGGAGA | 0.979
CATACATTTT | 0.994
CGGATCCGGG | 1.04
AGTGCTGTTT | 0.956
CTACCTGATA | 1.03
ACTAGACAGT | 1.02
TACGTATGGA | 1.08
GGAGATAACC | 1.03
CTGGGGGAAA | 1.01
ATATGGGGCA | 0.995
GTTCACGCTG | 0.955
CCGAACGATT | 3.36
